Laboratory results as given in ChEMBL document CHEMBL4888484, “Replenishing the malaria drug discovery pipeline: Screening and hit evaluation of the MMV Hit Generation Library 1 (HGL1) against asexual blood stage Plasmodium falciparum ,using a nano luciferase reporter read-out” (2022).
In all, about 150,000 compounds went through this assay and about 540 (0.36%) showed an effect of 50% or more. This is one part of the list.

test system: Plasmodium falciparum; assay: Primary screen in NF54 nanoGlo assay, in single point, at 2uM, 72h; a lower Z score goes with more inhibition; format: functional, Erythrocyte; conditions: timepoint 72 hour

Structure (SMILES)	% Inhibition [%]	Z score
Cc1ccnc(NC(=O)C(F)(F)[C@@]2(F)OC(F)(F)C(F)(F)C2(F)F)c1	7	-0.92
Cc1cc(C(=O)NCc2nc(CN3CCCCC3)no2)c(C)n1C	-5	0.92
COc1ccc(C(=O)NC2(CO)CC(C)CC(C)(C)C2)cc1-c1ccccn1 (configuration not stated)	-4	0.42
Cc1cccc(-n2nnnc2C2(N(C)C)CCCC2)c1	-5	0.65
c1ccc2[nH]c(CCc3nc(C[C@H]4CCCO4)no3)nc2c1	6	-1.12
CCCc1nnc2sc([C@H]3CCOC3)nn12	11	-1.56
CCOC(=O)c1c(C)[nH]c(C)c1-c1csc(-c2cccc(OC)c2)n1	-7	1.35
Cc1csc(NC(=O)C[C@H]2CCS(=O)(=O)C2)n1	-4	0.56
CC(C)N1CCC(Nc2nnc(Cc3ccccc3)o2)CC1	-6	0.68
Cc1ccc(S(=O)(=O)Nc2nnc(-c3cc(C)oc3C)o2)c(C)c1	-11	1.11
COc1c(C)cc(CNCC(C)(C)CN(C)C)cc1C	-2	0.28
O=C1C2ON(c3ccccc3)C(c3cccc4ccccc34)C2C(=O)N1c1c(Cl)cccc1Cl (configuration not stated)	-8	0.83
CCn1c(C)cc(C(=O)OCc2ccccc2C#N)c1C	-11	2.1
CCn1ccc(C(=O)N2CC[C@H](CCOc3ccccc3)C2)n1	-9	1.43
COc1ccc(OC)c(S(=O)(=O)N2CCC3(CC2)N=C(c2cccc(C)c2)C(=O)N3)c1	-9	1.13
O=C(NCc1ccccc1)C1=NN(c2ccc(Cl)cc2)c2ncccc2S1(=O)=O	11	-1.57
Cn1c(N2CCCN(C(=O)c3ccc(Cl)cc3)CC2)cc(=O)n(C)c1=O	-3	0.4
O=C(NCc1cnn(CCF)c1)c1coc2c1C(=O)NCCC2	-3	0.65
C[C@@H](C(=O)N1CCCCCC1)S(=O)(=O)Cc1nnnn1-c1ccccc1	-11	1.32
Cc1cc(NC(=O)CCc2ccsc2)sn1	-10	2.21
FC(F)(F)c1ccc(NCc2scnc2C2CC2)nn1	-1	0.15
Cc1cc(C(=O)N[C@H](CO)[C@@H](C)O)n2nc(C)cc2n1	-3	0.34

Structure (SMILES)	% Inhibition [%]	Z score
C=CCC1(C(=O)NCCc2cccnc2)CCCC1	-11	1.95
Cc1oc(-c2ccsc2)nc1CN1C(=O)N[C@@H](C(C)C)C1=O	2	-0.33
COc1ncc(CN2C(=O)N[C@@](C)(c3cc(C)oc3C)C2=O)c(C)n1	-11	1.47
Cc1cc2nc(N3CCN(C(=O)Cc4cccc5ccccc45)CC3)sc2cc1C	6	-0.71
O=C(Nc1nc(-c2cccc(Br)c2)c[nH]1)c1ccc(-n2cnnn2)cc1	9	-1.18
Cc1ccc(F)c2oc(C(=O)N3CC[C@H](N4CCCC4=O)C3)cc12	-7	0.73
CS(=O)(=O)N1CCC(COc2cc3c(nn2)CCC3)CC1	-7	0.94
COCCn1cncc1CNS(=O)(=O)C(C)C	-3	0.57
O=C(N[C@@H](CC(F)(F)F)c1ccccc1)c1ccc2c(=O)n3c(nc2c1)CCCCCC3	-10	1.88
CN(C(=O)c1cn2cc(Cl)ccc2n1)[C@H]1CCCN(CCCc2ccccc2)C1	-8	1.23
C#CCCC1(CCC(=O)N2CCCc3ccccc3C2)N=N1	-18	2.2
O=C(c1ccco1)N1CCN(C(=O)[C@@H]2COCC(=O)N2Cc2ccccc2)CC1	-4	0.74
COCCN(C(=O)C[C@]1(c2ccccc2)CC(=O)N(CCCOc2cccnc2)C1=O)C(C)C	20	-2.6
COc1ccccc1N1C(=O)N(c2ccccc2Cl)C2CS(=O)(=O)CC21 (configuration not stated)	-7	1.11
Cc1cc(-c2nnc(Cc3cccc(Cl)c3)o2)n(C)n1	38	-5.56
CCc1ccc(CN2CCC(Oc3cc(OC)ccc3C(=O)NCCOC)CC2)o1	17	-2.38
Cc1ccc(-c2cccnc2)cc1NC(=O)NC(CC1CCCO1)C(F)(F)F (configuration not stated)	11	-1.43
CCOCCOc1nc(-c2ccccc2F)n(-c2ccc(NS(=O)(=O)c3ccc(C)cc3)cc2)n1	-7	0.91
CN(C)c1noc([C@H]2CCn3ccnc3C2)n1	-18	2.28
O=C(c1ccccn1)N1Cc2ccccc2C1	-14	1.77
O[C@H]1[C@@H]2CC[C@H]1CN(Cc1ccc(-c3cccc(Cl)c3)o1)C2	-7	1
Cc1ccc(C(C)(C)NCCC(=O)Nc2ccc(F)cc2)cn1	11	-1.36

Structure (SMILES)	% Inhibition [%]	Z score
CCCC(C)CS(=O)(=O)N1CCCC1C(N)=O (configuration not stated)	-7	1.34
O=S1(=O)CCN(c2nc(-c3cc(F)ccc3F)cs2)CC1	-6	1.08
COCCN(Cc1ccc(OC)c(OS(=O)(=O)c2ccc(F)cc2)c1)C(=O)c1cccc(F)c1	-1	0.15
CC(C)c1cc(=O)n(CC(=O)N2CCCCC2)cn1	-6	1.05
O=C(NCc1nnc2n1CCOC2)c1ccc(OC(F)F)nc1	-8	1.3
O=C(NCC[C@H]1CCOC1)c1ccc(-c2cnn3cccnc23)cc1	-1	0.21
CCOc1ccccc1NC(=O)C(=O)c1cccn1C	-18	1.65
CC(C)(C)c1n[nH]cc1CNc1ccc(C[C@H]2CC(=O)NC2=O)cc1	3	-0.36
COc1ccccc1-c1n[nH]c2c1CN(C(=O)Cc1ccsc1)CC2	-2	0.22
COCCN(CC(=O)Nc1cnn(C)c1C)Cc1ccc(C)s1	0	-0.02
C[C@H]1CCCN(C(=O)CNC(=O)c2cccs2)C1	-6	1.25
O=C(CCCc1c[nH]c2ccccc12)N1CCOCC1	-11	1.51
C[C@]1(C#N)CCCN(C(=O)CCCn2cccn2)C1	-5	1.04
Cc1ccccc1CNC(=O)c1cc(N(C)C2CCCCC2)nc2ccccc12	-26	2.26
CN1CCN(C(=O)CN2CCCC2)C[C@H]1c1ccccc1	-21	2.73
Cc1nc2ccccc2n1[C@H]1CCN(S(=O)(=O)c2ccc3c(c2)CCCC3)C1	-17	2.11
COc1cnc2ccccc2c1C(=O)N1CCC(N2CCCOCC2)CC1	-39	4.55
CC(C)c1nc(CC(=O)N2CCc3sccc3C2)cs1	0	0.04
CCCCS(=O)(=O)N[C@@H](COC)c1ccccn1	9	-1.15
Cc1cc(F)ccc1[C@H](C)NC(=O)Nc1ncn(CC(=O)N(C)C)n1	-5	0.55
COc1c(C)ncnc1N1CCC[C@H](n2cc(C)cn2)C1	2	-0.3
Cn1cc(NC(=O)c2ccccn2)cn1	4	-0.68

Structure (SMILES)	% Inhibition [%]	Z score
CN(Cc1nnc(-c2ccco2)o1)C[C@H]1COc2ccccc2O1	-13	2.46
CCCN1C(=O)CN(S(=O)(=O)c2ccccc2)C[C@@]1(C)C(=O)NCc1ccc(C)cc1	1	-0.15
COc1ccc(F)cc1C(=O)N1C[C@@H](CN2C[C@@H](C)O[C@@H](C)C2)[C@@H](CO)C1	-17	2.58
O=C(NCc1cccc(F)c1)c1cc2n(n1)CCCN(Cc1ccc(Cl)cc1)C2=O	1	-0.14
O=C1NC2(CCN(C(=O)NC3CCCCC3)CC2)Nc2cc(Cl)ccc21	-6	0.75
C[C@@H](CC#N)NS(=O)(=O)c1cnc(NCCCO)c(Cl)c1	-4	0.63
CCc1nc(N2CCC(CNC(=O)c3cc(C)on3)CC2)no1	-7	0.87
O=c1cccc(-c2noc(C3CCC3)n2)[nH]1	-6	0.83
CS(=O)(=O)N1CCC2(CC1)OC(=O)c1ccccc12	-13	1.72
C[C@@H](Cc1cccnc1)NC(=O)Nc1ccc(C2CCC2)cn1	-1	0.16
CCc1nsc(N2CCC(n3c(C)nnc3N)CC2)n1	26	-3.3
CN(Cc1ccccn1)C(=O)[C@@H]1CCCCN1C(=O)c1cccnc1	-16	1.74
C[C@H](N(C)C(=O)c1ccccc1F)C(C)(C)C	-10	1.82
Cc1ccn(-c2cc(N3CCN(C(=O)CNC(=O)c4ccccc4)CC3)ncn2)n1	-3	0.45
Brc1cnc(NCCc2ccc[nH]2)nc1	-2	0.21
CCOC1CC(N(C)Cc2cccnc2)C1(C)C (configuration not stated)	5	-0.83
CS(=O)(=O)N1CCN(C(=O)COc2ccc(Cl)cc2Cc2ccccc2)CC1	-1	0.22
COc1ccccc1N1CCN(CCC(=O)Nc2ccc3c(c2)CCC3)CC1	-4	0.53
CCCn1ncc(C(=O)N2CC(C)(C)[C@@](O)(C3CC3)C2)c1C	-2	0.48
Cc1ccccc1-c1cc(C(=O)N(C)C2CC2)c2cnn(C(C)C)c2n1	-6	0.69
